Paper PMC4336329 (PLoS ONE, 2015)
Among all 310,000 compounds or so, about 14,000 (4.5%) showed an effect of 50% or more. The effect is printed as a negative number. The list shows a part of the results.

What follows are compounds tested against human ether-à-go-go-related gene (hERG) potassium channel (human, UniProt Q12809) (assay: primary screen, population patch clamp on CHO cells stably expressing hERG).
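Also: peak tail current of the secondary pulse compared with the same well before compound.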

human ether-à-go-go-related gene (hERG) potassium channel, sequence (Q12809 whole entry, looked up): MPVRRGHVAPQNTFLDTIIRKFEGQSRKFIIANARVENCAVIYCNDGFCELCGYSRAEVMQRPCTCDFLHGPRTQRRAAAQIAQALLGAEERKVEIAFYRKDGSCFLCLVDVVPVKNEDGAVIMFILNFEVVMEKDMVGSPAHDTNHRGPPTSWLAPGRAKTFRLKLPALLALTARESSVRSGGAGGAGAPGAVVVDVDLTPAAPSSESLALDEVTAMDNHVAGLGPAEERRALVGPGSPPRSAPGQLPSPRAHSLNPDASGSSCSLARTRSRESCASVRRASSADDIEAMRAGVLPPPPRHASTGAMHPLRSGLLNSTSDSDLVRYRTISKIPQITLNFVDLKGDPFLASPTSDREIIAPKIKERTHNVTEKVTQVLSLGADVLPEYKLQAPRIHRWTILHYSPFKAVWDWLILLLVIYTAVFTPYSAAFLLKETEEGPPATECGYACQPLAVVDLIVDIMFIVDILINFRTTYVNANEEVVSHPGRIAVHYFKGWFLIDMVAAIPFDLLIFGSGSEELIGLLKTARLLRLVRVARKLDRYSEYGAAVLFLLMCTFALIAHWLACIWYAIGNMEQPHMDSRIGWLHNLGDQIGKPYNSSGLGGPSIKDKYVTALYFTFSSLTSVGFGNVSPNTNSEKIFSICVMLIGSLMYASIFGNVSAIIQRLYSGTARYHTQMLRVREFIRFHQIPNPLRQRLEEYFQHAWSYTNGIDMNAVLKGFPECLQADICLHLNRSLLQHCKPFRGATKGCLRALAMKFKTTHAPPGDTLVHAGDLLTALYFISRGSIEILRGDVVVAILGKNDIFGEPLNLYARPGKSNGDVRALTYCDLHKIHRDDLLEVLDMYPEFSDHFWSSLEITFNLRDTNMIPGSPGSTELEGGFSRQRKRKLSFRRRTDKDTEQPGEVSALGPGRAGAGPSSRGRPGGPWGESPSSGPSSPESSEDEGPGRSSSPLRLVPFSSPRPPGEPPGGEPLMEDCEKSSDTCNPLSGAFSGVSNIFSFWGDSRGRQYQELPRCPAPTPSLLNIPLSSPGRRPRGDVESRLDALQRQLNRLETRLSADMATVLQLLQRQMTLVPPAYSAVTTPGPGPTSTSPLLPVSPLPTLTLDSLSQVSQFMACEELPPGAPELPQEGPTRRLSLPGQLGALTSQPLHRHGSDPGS

SMILES	hERG current change (%, negative = inhibition) at 10uM
CCC(C)NC(=O)C1c2ccccc2C(=O)N1Cc1ccccc1 (centres unmarked)	20.5%
CCCOC1CCCN(Cc2cn(C)nc2-c2ccccc2F)C1 (centres unmarked)	12.8%
CC1CCC2(CC1)NC(=O)N(CC(=O)NC1(C#N)CCCCC1)C2=O (centres unmarked)	16.7%
CCCc1noc2c1C(c1ccoc1)C(C#N)=C(N)N2 (centres unmarked)	3.87%
Cc1ccc(NC2CC(=O)N(c3ccc(C)cc3)C2=O)cc1 (centres unmarked)	-0.727%
CC1(c2nnc(Cc3ccccc3)o2)CC(c2cccc(F)c2)=NO1 (centres unmarked)	-3.35%
COc1cccc(N/C(SCc2cccc([N+](=O)[O-])c2)=C(/C#N)C(=O)NCc2cccs2)c1	0.656%
COc1ccc(S(=O)(=O)c2nnn(-c3cccc(OC)c3)c2N)cc1	-30.1%
O=C(NC(C(=O)N/N=C/c1ccncc1)c1n[nH]c(=O)c2ccccc12)c1ccccc1 (centres unmarked)	13.1%
Cc1cc(=O)cc(C)n1-c1ccc(Cl)c(Cl)c1	13.5%
O=C(COC(=O)CCOc1ccccc1)Nc1ncc(Cl)cc1Cl	-2.65%
S=c1[nH]nc(CSCCOc2ccccc2)o1	8.24%
O=C(COc1ccccc1)Nc1ccc(CSc2ccccc2)cc1	14.6%
O=C1NC(=O)C(CCc2ccncc2)(Cc2ccc([N+](=O)[O-])cc2)C(=O)N1	10.8%
Nc1nc(-c2ccccc2)nn1S(=O)(=O)c1ccccc1	16%
COc1ccc(N2CC(O)(c3ccc(C)cc3)[N+]3=C2CCCC3)cc1.[Br-] (centres unmarked)	-38.9%
Cc1ccc(CN2CCN(CC3CC4C=CC3C4)CC2)cc1 (centres unmarked)	-46.8%
Cc1ccc(S(=O)(=O)n2cnc3cc([N+](=O)[O-])ccc32)c(C)c1	-6.34%
O=C1N=C(N2CCCC2)S/C1=C\C=C\c1ccccc1	-32.4%
Cc1cc(C)cc(N2CN=c3s/c(=C\c4ccco4)c(=O)n3C2)c1	3.07%
COc1ccc(OCC(=O)NCc2n[nH]c(=O)c3ccccc23)cc1	-21.7%
CC(=O)NNc1nc(-c2ccccc2)c2cc(Br)ccc2n1	5.01%

SMILES	hERG current change (%, negative = inhibition) at 10uM
O=C(COC(=O)c1cncc(Br)c1)NCc1ccco1	8.22%
O=C(NCc1cc([N+](=O)[O-])ccc1O)c1cccc(NS(=O)(=O)c2ccccc2)c1	18.3%
CC(=O)NC(CCS(C)(=O)=O)C(=O)Nc1ccc(Oc2ccccc2)cc1 (centres unmarked)	-4.68%
Cc1ccc(OCCNC(=O)c2ccccc2F)cc1	-3.2%
COc1cccc(CC(=O)Nc2ncc(C)s2)c1	7.43%
Cc1cccc(-c2ncc(CN3CCN(CC(C)C)C(CCO)C3)cn2)c1 (centres unmarked)	-47.9%
Cc1ccccc1CN1C[C@@H]2C[C@@H](c3cn(C)nc3-c3ccccc3)N3CCC[C@@]23C1=O	3.15%
CCC(=O)Nc1ccc2c(c1)nc(CCN1CCN(C)CC1)n2C	29.3%
Cc1cccc(N2CCN(S(=O)(=O)c3c(C)[nH]c(C)c3C(=O)N3CCCC3)CC2)c1C	-0.48%
N#CC(C#N)=C1C=CC=CN1/C(=C\c1ccco1)C(=O)c1ccc(-c2ccccc2)cc1	3.14%
NC(=O)C1CCN(c2ccc3c(c2)S(=O)(=O)c2ccccc2C3=O)CC1	4.28%
Cc1nc(C(=O)Nc2ccc(Cl)cc2)nn1-c1ccc([N+](=O)[O-])cc1	-58.6%
COc1ccccc1N1CCN(/N=C/c2ccc(Cl)c([N+](=O)[O-])c2)CC1	10.6%
CCCCn1c(=O)c(C(=O)NC(C)c2ccccc2)c(O)c2ccccc21 (centres unmarked)	24.3%
CC(C)NC(=O)[C@@H]1C[C@@]1(C)[C@@H](NC(=O)OCc1ccccc1)c1ccccc1	14.7%
NC(=O)c1cc(-c2ccccc2)sc1NC(=O)CN1CCCCC1	0.904%
Cc1cccn2c(=O)c3cc(S(=O)(=O)c4ccccc4)c(=N)n(Cc4ccc(F)cc4)c3nc12	24.7%
Cc1cccc(N2C(=O)C3C4C=CC(C4)C3C2=O)c1 (centres unmarked)	-8.32%
Cc1cccc(NC(=O)CSc2nnc(CNC(=O)c3ccco3)n2C)c1	19.3%
COc1ccccc1OCc1ccc(C(=O)NC(C)c2ccccc2)o1 (centres unmarked)	-11.9%
CC(=O)N1c2ccc(S(=O)(=O)N3CCC(C(=O)Nc4cccc(C)c4C)CC3)cc2CC1C (centres unmarked)	-29.7%
Cc1ccc(C)c(N2CCN(S(=O)(=O)c3ccc4c(c3)oc(=O)n4C)CC2)c1	5.15%

SMILES	hERG current change (%, negative = inhibition) at 10uM
COC(=O)CCCC1=CC2=CC(=O)C(C)(OC(=O)c3cccs3)C(=O)C2=CN1c1ccc(OC)cc1 (centres unmarked)	-13.2%
O=C(CN1C(=O)NC2(CCOc3ccccc32)C1=O)c1ccc(Cl)s1 (centres unmarked)	-20.8%
C/C(=N\Nc1ncc(Br)cn1)c1cccc([N+](=O)[O-])c1	-4.39%
CCOc1ccc(CNC(=O)c2nnc(CS(=O)(=O)c3ccccc3)o2)cc1OC	7.93%
Cc1ccc2c(c1)C=CC(C#N)N2C(=O)c1ccccc1 (centres unmarked)	16.3%
O=C(NC1CCS(=O)(=O)C1)/C(=C\c1ccc(F)cc1)NC(=O)c1ccccc1 (centres unmarked)	-34.7%
CN(Cc1ccno1)C(=O)CC1C(=O)NCCN1CC(c1ccccc1)c1ccccc1 (centres unmarked)	8.76%
Cc1ccc(S(=O)(=O)N(CC#N)CC#N)cc1	1.71%
COc1cccc(S(=O)(=O)NCc2ccc(C(=O)N3CCN(c4ccccc4)CC3)cc2)c1	-14.5%
COc1ccc(-c2ccc(-c3noc(-c4cccc(OC)c4)n3)c(OC)n2)cc1	8.95%
CCN(Cc1ccccc1)C(=O)Cn1cc(S(=O)(=O)NC)c(S(=O)(=O)NC)c1	4.06%
O=C(CCN1C(=O)c2ccccc2S1(=O)=O)Nc1ccc(C(=O)O)cc1	10.4%
CCCCN(C(=O)c1oc2ccc(OCC)cc2c1C)c1c(N)n(CC(C)C)c(=O)[nH]c1=O	20.7%
Cc1ccc(N2CN(Cc3ccco3)CNC2=S)cc1	10.9%
Cn1cnnc1SCC(=O)Nc1cccc(S(=O)(=O)N2CCOCC2)c1	-27%
COc1ccccc1C(=O)Nc1ccccc1C(=O)NCc1ccco1	-3.93%
CCOc1ccccc1NC(=S)N1CCCc2ccccc21	-7.67%
Cc1ccc(CNC(=O)CCCC(=O)O)cc1	3.31%
CC(=O)Nc1ccc(S(=O)(=O)N2CCN(C(C)CCc3ccccc3)CC2)cc1 (centres unmarked)	-38%
O=C(Nc1ccc(Cl)cc1)c1ccc(Br)cc1F	14.4%
CC1CCN(CCOc2ccc(Cl)c(Cl)c2)CC1	-46.3%
COc1ccccc1C(=O)NC1CCN(C(=O)Nc2ccc(C)cc2)CC1	5.62%

SMILES	hERG current change (%, negative = inhibition) at 10uM
CCOc1c2ccc(C(=O)NCc3ccc4c(c3)OCO4)cc2nn1CCOC	0.525%
OC(CN1CCN(c2cccc(C(F)(F)F)c2)CC1)c1c[nH]c2ccccc12 (centres unmarked)	7.32%
COc1ccc(Cl)cc1NC(=O)CCN1CCOCC1	-4.1%
Cc1cc(C)cc(N(CCC#N)C(=O)COC(=O)CN2C(=O)NC(C)(C)C2=O)c1	19.6%
CC(C)(C)C#CCn1c(/C=[N+](\[O-])C2CCCCC2)nc2ccccc21	-25.7%
COCCn1c(-c2ccc(Cl)cc2)nc2oc3cc(OC)ccc3c(=O)c2c1=O	-20.8%
COc1ccc(NC(=O)CS(=O)CC(=O)Nc2cc(Cl)ccc2OC)cc1 (centres unmarked)	-2.03%
COc1ccc(S(=O)(=O)N2CCOCC2)cc1Cl	-14.3%
Cc1cc(C)c(C)c(S(=O)(=O)N2CCC(C(=O)Nc3ccc(S(=O)(=O)N4CCOCC4)cc3)CC2)c1C	15.1%
COc1cc(C2NC(=S)NC(O)(C(F)(F)F)C2C(=O)c2cccs2)cc(OC)c1O (centres unmarked)	27.5%
CCNC(=O)NC(=O)COC(=O)c1cccc(NS(=O)(=O)/C=C/c2ccccc2)c1	9.96%
Cc1cccn2cc(CNc3ccccc3)nc12	-4.15%
O=C1CCCc2cc(S(=O)(=O)N3CCC(C(=O)NCc4ccccc4)CC3)ccc2N1	-0.41%
O=C(c1cnn(-c2ccccc2)c1)c1ccccc1O	5.04%
COc1cccc(N=Nc2c(C)[nH]n(-c3ccccc3)c2=O)c1	10.1%
O=C(NCCN1CCOCC1)c1cc2c(=O)n3ccccc3nc2n1Cc1ccccc1	-5.9%
CCOC(=O)CC(=O)CSc1nnc2c(n1)[nH]c1ccccc12	-28.6%
Cc1ccc(NCC(=O)N/N=C/c2cccc(Br)c2)cc1	-2.51%
CC1CCC(NC(=O)c2ccc(NC(=O)c3ccc(=O)[nH]c3)cc2)CC1 (centres unmarked)	-1.67%
COc1ccc(CN2C(=O)C(=O)N(CC(N)=O)C2=O)cc1	27.6%
